In PubChem BioAssay AID1645887 (National Center for Advancing Translational Sciences (NCATS), 2021):
The whole screen tested about 16,000 compounds, of which about 40 (0.2%) were called active. This list was built around the results that the source calls inconclusive (neither active nor inactive); the mix of calls is not that of the screen. The call rests on the fitted dose curve; in most records, active means well fitted activation curve with a large enough effect; inconclusive means small, poorly fitted or top-dose-only effect, or another doubt; inactive means no such curve, though single readings can be large or run the other way. Potencies of inconclusive entries are left out as doubtful fits.

Each compound was assayed against Rap guanine nucleotide exchange factor 4 (Homo sapiens) (UniProt Q8WZA2) (assay: Validation qHTS for agonist of cAMP-regulated guanine nucleotide exchange factor 4 (EPAC2)). Conditions: EPAC2 Rap1B BODIPY-GDP exchange, fluorescence; activation: stronger effect = higher value.
Sequence of UniProt Q8WZA2 (Q8WZA2 whole entry, looked up): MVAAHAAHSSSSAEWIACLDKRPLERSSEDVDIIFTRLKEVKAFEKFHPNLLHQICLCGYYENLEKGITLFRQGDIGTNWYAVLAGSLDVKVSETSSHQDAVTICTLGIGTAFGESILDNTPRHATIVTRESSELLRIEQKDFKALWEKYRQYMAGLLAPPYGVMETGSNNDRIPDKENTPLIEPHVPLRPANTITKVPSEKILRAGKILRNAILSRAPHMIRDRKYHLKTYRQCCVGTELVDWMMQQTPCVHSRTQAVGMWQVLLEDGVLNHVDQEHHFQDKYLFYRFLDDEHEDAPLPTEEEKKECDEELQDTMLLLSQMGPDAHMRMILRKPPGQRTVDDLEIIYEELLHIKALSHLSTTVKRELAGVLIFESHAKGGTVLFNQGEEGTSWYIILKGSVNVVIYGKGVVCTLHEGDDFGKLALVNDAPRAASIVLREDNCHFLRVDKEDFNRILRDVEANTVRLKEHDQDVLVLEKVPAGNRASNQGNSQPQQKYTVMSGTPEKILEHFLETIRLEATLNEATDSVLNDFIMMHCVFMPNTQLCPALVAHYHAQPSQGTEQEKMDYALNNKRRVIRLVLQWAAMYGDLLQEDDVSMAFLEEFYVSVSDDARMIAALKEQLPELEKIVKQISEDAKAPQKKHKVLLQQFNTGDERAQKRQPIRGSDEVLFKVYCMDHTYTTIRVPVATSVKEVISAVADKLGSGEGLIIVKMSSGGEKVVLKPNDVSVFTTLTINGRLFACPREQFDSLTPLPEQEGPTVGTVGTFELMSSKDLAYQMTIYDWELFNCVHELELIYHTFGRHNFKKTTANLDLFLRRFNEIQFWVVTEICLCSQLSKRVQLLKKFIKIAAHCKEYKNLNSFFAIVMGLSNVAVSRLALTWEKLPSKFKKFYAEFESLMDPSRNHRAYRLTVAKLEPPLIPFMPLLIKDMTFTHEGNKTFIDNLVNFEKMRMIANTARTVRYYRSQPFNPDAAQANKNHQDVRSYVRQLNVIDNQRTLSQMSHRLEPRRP
How it was run: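 Fluorescent exchange assay: 100 nM EPAC2 with 250 nM RAP1B-BODIPY-GDP and 50 uM GDP; compound added, 5 min at room temperature, then read (ex 480/em 540 nm) every 5 min for 30 min. Normalized to 6.5 mM cAMP agonist control.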
On the % scale 0 is the no-effect control and ±100 the full control effect; potency means the concentration at half of the fitted maximal effect; tags describe the fitted curve by direction and shape.
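Wherever activation is given: exchange makes BODIPY-GDP fluorescence drop when released from Rap1B; series mostly up to about 150 µM.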

Row | Compound | Potency | activation
1 | COc1cc(/C=C/C(=O)/C=C(O)/C=C/c2ccc(O)c(OC)c2)ccc1O | inconclusive [activator, single point] | –
2 | CCCCCCC[n+]1ccc(/C=C/c2c(C)[nH]c3ccccc23)c2ccccc21 | – | inactive: -18.3%
3 | CN1CCN(c2ncc3nc(-c4cn(C)c5ccccc45)c(=O)n(CCC#N)c3n2)CC1 | inconclusive [activator, partial curve] | –
4 | COc1cc([C@@H]2c3cc4c(cc3C(O[C@@H]3O[C@@H]5CO[C@@H](C)O[C@H]5[C@H](O)[C@H]3O)C3COC(=O)[C@@H]32)OCO4)cc(OC)c1OP(=O)(O)O (stereo partly specified) | inconclusive [activator, single point] | –
5 | NC[C@H]1O[C@H](O[C@H]2[C@H](O[C@@H]3O[C@H](CO)[C@@H](O)[C@H]3O)C(O)[C@H](N)C[C@@H]2N)[C@H](N)[C@@H](O)[C@@H]1O (stereo partly specified) | – | inconclusive: -28.9% [activator]
6 | CC(C)(C)C(=O)OCOC(=O)C1N2C(=O)CC2S(=O)(=O)C1(C)C (stereo unspecified) | inconclusive [activator, partial curve, poor fit] | –
7 | C(=C\c1nccc2ccccc12)/c1ccc(N2CCOCC2)cc1 | inconclusive [activator, full curve, poor fit] | –
8 | CC(C)OC(=O)c1cc(C(=O)OC(C)C)cc([N+](=O)[O-])c1 | inconclusive [activator, single point] | –
9 | Cc1nc(NCc2ccc3nsnc3c2)sc1-c1ccn(C)n1 | inconclusive [activator, partial curve, poor fit] | –
10 | CCCCCCCCCCCCCCCC[n+]1ccc(/C=C/c2c(C)[nH]c3ccccc23)cc1 | – | inactive: -30%
11 | CC[C@@]1(O)C(=O)OCc2c1cc1n(c2=O)Cc2cc3c(CN(C)C)c(O)ccc3nc2-1 | active: 89.1 µM | –
12 | COCCN1CCN(C(=O)c2cnn(-c3nccc(-c4ccccc4OC)n3)c2-c2ccco2)CC1 | inconclusive [activator, partial curve, poor fit] | –
13 | Cn1cccc1C(=O)N1CCC2(CCCN(c3cccc(-c4ccccc4)c3)C2)CC1 | inconclusive [activator, partial curve, poor fit] | –
14 | O=C1CCN(CCc2ccccc2)CCN1CCOc1ccccc1 | inconclusive [activator, full curve, poor fit] | –
15 | Cc1cc2nc3c(=O)[nH]c(=O)nc-3n(C[C@H](O)[C@H](O)[C@H](O)COP(=O)(O)OP(=O)(O)OC[C@H]3O[C@@H](n4cnc5c(N)ncnc54)[C@H](O)[C@@H]3O)c2cc1C | active: 89.1 µM | –
16 | CCc1c(C)nc2c(OC)cccc2c1Cl | inconclusive [activator, partial curve] | –
17 | COCCn1c(=O)c(-c2ccc(Cl)cc2)nc2cnc(Oc3cccc(Cl)c3)nc21 | – | inconclusive: -26.6% [activator]
18 | Cn1c(-c2nc(-c3ccccc3)cs2)nc2ccccc21 | inconclusive [activator, partial curve] | –
19 | COc1ccccc1CCNc1ncnc2sc(C(=O)N3CCCC3)c(C)c12 | – | inactive: -2.93%
20 | CCOC(=O)C1=C(C)NC(C)=C(C(=O)OCC)C1c1ccccc1C=CC(=O)OC(C)(C)C | – | inconclusive: -54.9% [activator]
21 | Cc1cccnc1-c1cccc2c1OC(CNC(=O)C(=O)c1ccccc1)C2 (stereo unspecified) | – | inactive: -7.04%

Row | Compound | Potency | activation
22 | CN(C)c1ncc2nc(-c3cccs3)c(=O)n(C3CC3)c2n1 | inconclusive [activator, full curve, poor fit] | –
23 | CCc1ccc(C(=O)C[N+]2(C)CCOCC2)cc1 | – | inconclusive: -34.9% [activator]
24 | O=c1c(-c2ccc(Cl)cc2)nc2cnc(N3CCOCC3)nc2n1Cc1ccc(F)cc1 | – | inactive: -11.5%
25 | CCOC(=O)C1=C(C)NC(C)=C(C(=O)OC)C1c1cccc([N+](=O)[O-])c1 (stereo unspecified) | inconclusive [activator, full curve, poor fit] | –
26 | COc1ccc(-n2c(=O)c(-c3cccs3)nc3cnc(Nc4cccc(OC)c4)nc32)cc1 | inconclusive [activator, partial curve] | –
27 | COc1ccc(-c2nc3cnc(N4CCNCC4)nc3n(Cc3cccs3)c2=O)cc1 | inconclusive [activator, full curve, poor fit] | –
28 | COc1cc2c(c(OC)c1OC)-c1ccc(OC)c(=O)cc1[C@@H](NC(C)=O)CC2 | – | inconclusive: -21.8% [activator]
29 | O=C(c1ccc(OCCN2CCCCC2)cc1)c1c(-c2ccc(O)cc2)sc2cc(O)ccc12 | inconclusive [activator, full curve, poor fit] | –
30 | O=S(=O)(NCCCCCCc1ccccc1)c1cccc2c(Cl)cccc12 | inconclusive [activator, full curve, poor fit] | –
31 | COc1ccc(C(=O)N2CCC3(CCCN(c4cccc(-c5ccccc5)c4)C3)CC2)cc1 | inconclusive [activator, partial curve] | –
32 | CCOC(=O)c1ccc(C#Cc2ccc3c(c2)C(C)(C)CCS3)nc1 | inconclusive [activator, single point] | –
33 | O=c1c(-c2cc(F)cc(F)c2)nc2cnc(N3CCNCC3)nc2n1Cc1ccc(F)cc1 | inconclusive [activator, partial curve, poor fit] | –
34 | Cc1ccc(N)cc1O | – | inactive: 2.89%
35 | COc1ccccc1C1CN(CCNC(=O)c2ccc3c(c2)OCCO3)Cc2ccccc2O1 (stereo unspecified) | – | inactive: 10.6%
36 | COC1=C(OC)C(=O)c2ccccc2C1=O | inconclusive [activator, single point] | –
37 | CC(=O)c1ccc(-c2cc(F)cc3c2OC(CNC(=O)C(C)N2CCOCC2)C3)s1 (stereo unspecified) | – | inconclusive: -36.5% [activator]
38 | CC(=O)N1CCC2(CCCN(c3ccc(-c4ccccc4)cc3)C2)CC1 | inconclusive [activator, partial curve, poor fit] | –
39 | OC(c1cccnc1)c1ccc2c(c1)CN(Cc1cn(-c3ccccc3)nc1-c1ccccc1)CCO2 (stereo unspecified) | – | inactive: -2.05%
40 | COCC(=O)Nc1cc(C(=O)N2CCCOc3c(cccc3OC)C2)c2c(c1)nc(C1CCC1)n2C | inconclusive [activator, partial curve, poor fit] | –
41 | CCNc1ncc2nc(-c3cccs3)c(=O)n(CCC#N)c2n1 | active: 50.1 µM | –
42 | COc1c(O)cc2c(=O)oc3c(OC)c(O)cc4c(=O)oc1c2c34 | – | inactive: -13.8%

Row | Compound | Potency | activation
43 | CN1CCCc2cc(/C=C/c3ccnc4ccccc34)ccc21 | inconclusive [activator, full curve, poor fit] | –
44 | N[C@@H]1CONC1=O | inconclusive [activator, full curve, poor fit] | –
45 | COc1ccc(-c2nc3cnc(OC)nc3n(C)c2=O)cc1 | inconclusive [activator, partial curve, poor fit] | –
46 | COc1ccc(-n2c(=O)c(C)nc3cnc(Nc4ccccc4)nc32)cc1 | inconclusive [activator, single point] | –
47 | N=C(N)c1ccc(/C=C/c2ccc(C(=N)N)cc2O)cc1 | inconclusive [activator, single point] | –
48 | O=c1[nH]c(=O)n(C2CC(O)C(CO)O2)cc1F (stereo unspecified) | – | inactive: -6.18%
49 | CN1C(=O)CC(c2ccccc2)C1=O (stereo unspecified) | – | inconclusive: 313% [activator]
50 | COc1cc(=O)n2c(c1C(=O)NCc1nccs1)CCN(Cc1ccccc1F)CC2 | inconclusive [activator, partial curve, poor fit] | –
51 | CCCCCCC[n+]1ccc(/C=C/c2c(C)[nH]c3ccccc23)cc1 | active: 25.1 µM | –
52 | C[C@H]1C[C@@H]2[C@@H]([C@@H](O)C[C@@]3(C)[C@H]2CC[C@]3(O)C(=O)CO)[C@@]2(C)C=CC(=O)C=C12 | – | inconclusive: -21.6% [activator]
53 | COc1cccc2c1C(=O)c1c(O)c3c(c(O)c1C2=O)C[C@@](O)(C(=O)CO)C[C@@H]3O[C@H]1C[C@H](N)[C@H](O)[C@H](C)O1 | inconclusive [activator, partial curve, poor fit] | –
54 | NC1=NC2C(N=C(Br)N2[C@@H]2O[C@H]3COP(=O)(O)O[C@@H]3[C@@H]2O)C(=O)N1 (stereo partly specified) | inconclusive [activator, full curve] | –
55 | O=C(c1csnn1)N1CCC2(CCCN(c3cccc(-c4ccccc4)c3)C2)CC1 | inconclusive [activator, partial curve, poor fit] | –
56 | CCCC(=O)OC[C@@H](OC(=O)CCC)[C@@H](OC(=O)CCC)[C@H](Cn1c2nc(=O)[nH]c(=O)c-2nc2cc(C)c(C)cc21)OC(=O)CCC | – | inconclusive: 346% [activator]
57 | c1cnc2c(-c3nccc4c3[nH]c3ccccc34)cccc2c1 | inconclusive [activator, partial curve, poor fit] | –
58 | CC(=O)c1ccc2c(c1)N(CCCN(C)C)c1ccccc1S2 | – | inconclusive: -29.3% [activator]
59 | COc1ccc(OC)c(/C=C/c2nc3ccccc3nc2C)c1 | inconclusive [activator, full curve] | –
60 | Clc1cccc[n+]1CCc1ccccc1 | – | inactive: -40.7%
61 | Cc1ccc(C(C)CCN2CCOc3ccc(CN4CCOCC4)cc3C2)o1 (stereo unspecified) | – | inactive: 1.95%
